From PubChem BioAssay AID894 (National Center for Advancing Translational Sciences (NCATS), 2007)
The whole screen tested about 150,000 compounds, of which about 6,500 (4.3%) were called active. The shares of active, inactive and inconclusive entries below differ from those in the screen. Calls follow the shape of the dose curve; as a rule, active = well fitted inhibition curve with a large enough effect (not every such curve was filed as active); inconclusive = small, poorly fitted or top-dose-only effect, or another doubt; inactive = no such curve, though single readings can be large or run the other way. Potencies of inconclusive entries are doubtful fits and often do not repeat.

Each molecule was assayed against 15-hydroxyprostaglandin dehydrogenase [NAD(+)] (Homo sapiens) (UniProt P15428) (assay: qHTS Assay for Inhibitors of HPGD (15-Hydroxyprostaglandin Dehydrogenase)). Details: purified HPGD, NADH fluorescence kinetic, PGE2 substrate; activity change, negative = inhibition: hits give low values.
Chain of UniProt P15428 (P15428 whole entry, looked up): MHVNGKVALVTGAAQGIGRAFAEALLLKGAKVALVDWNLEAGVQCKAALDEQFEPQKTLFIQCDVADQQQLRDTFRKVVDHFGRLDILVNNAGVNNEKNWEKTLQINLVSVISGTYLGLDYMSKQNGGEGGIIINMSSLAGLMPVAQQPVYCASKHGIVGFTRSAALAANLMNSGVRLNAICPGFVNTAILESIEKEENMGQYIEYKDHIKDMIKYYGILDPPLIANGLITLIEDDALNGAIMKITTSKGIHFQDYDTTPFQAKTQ
Outline: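 NADH formation kinetics: reaction with 30 uM PGE2 and 1 mM NAD+ (final), 20 nM enzyme, Tris-HCl pH 8 with Tween 20, after 15 min compound preincubation at room temperature. Fluorescence change, last versus first of five reads.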
% is scaled to controls: 0 for no effect and ±100 for the full control effect; potency is read from the fitted curve at half-maximal effect; tags tell the direction and shape of the fitted curve.

Potency, inconclusive:
CC(C)CCSc1nc2c(c(=O)[nH]c(=O)n2C)n1CCCc1ccccc1 15.8 µM [inhibitor, partial curve]
COc1ccc2[nH]c(=O)c(CN(C(C)=O)c3cccc(C)c3)cc2c1 31.6 µM [inhibitor, partial curve]
FC(F)(F)c1nc2ccccc2n2c(-c3ccc(Cl)cc3)nnc12 28.2 µM [inhibitor, partial curve]
O=C(Cn1cnc2c(nnn2-c2ccc(F)cc2)c1=O)NCc1ccco1 28.2 µM [inhibitor, partial curve]
COc1ccc(C2CC23N=C(c2ccccc2)OC3=O)cc1 (stereo not given) 31.6 µM [inhibitor, single point]
O=c1c(-c2ccccc2)nc2cnc(N3CCOCC3)nc2n1-c1ccccc1 15.8 µM [inhibitor, partial curve]
CCc1nnc(NC(=O)c2ccc(-c3cccc(C(F)(F)F)c3)o2)s1 31.6 µM [inhibitor, partial curve]
Cc1c(Cl)c(=O)oc2cc(OC(C)C)ccc12 15.8 µM [inhibitor, partial curve]
O=C(NCC(=O)N(Cc1ccccc1)C(C(=O)NCC1CCCO1)c1ccccc1)c1cccs1 (stereo not given) 35.5 µM [inhibitor, single point]
COc1ccc2cc3cc(C(=O)NCCc4ccc(OC)c(OC)c4)oc3nc2c1 25.1 µM [inhibitor, partial curve]
c1ccc2c(c1)nnn2-c1ncnc2sc3c(c12)CCCC3 17.8 µM [inhibitor, partial curve]
COc1ccccc1NC(=O)CC1Nc2ccccc2NC1=O (stereo not given) 15.8 µM [inhibitor, partial curve]
COc1ccccc1N1CCN(C/C=C/c2ccc(N(C)C)cc2)CC1 25.1 µM [inhibitor, partial curve]
O=S1(=O)c2ccccc2N=NN1Cc1cc(Cl)cc(Cl)c1 39.8 µM [inhibitor, single point]
Cc1ccc(C(=O)Nc2nc(-c3cc(Cl)sc3Cl)cs2)cc1 39.8 µM [inhibitor, single point]
c1ccc(-n2ncc3c(NCCN4CCOCC4)ncnc32)cc1 31.6 µM [inhibitor, single point]
COc1ccc(C(=O)Nc2ccc(S(=O)(=O)N3CCCCC3C)cc2)c(OC)c1OC (stereo not given) 28.2 µM [inhibitor, partial curve]
CC(=O)Oc1ccc(Cl)cc1/C=C/c1cc(OC(C)=O)c2ccccc2n1 3.55 µM [inhibitor, full curve]
CC(NC(=O)c1ccccc1NS(C)(=O)=O)c1ccccc1 (stereo not given) 28.2 µM [inhibitor, partial curve]
CCCn1c(-c2ccc(F)cc2)nc2c(NCCCCN(CC)CC)nc(C)nc21 31.6 µM [inhibitor, partial curve]
Cc1ccsc1/C=N/Nc1nc2ccccc2s1 31.6 µM [inhibitor, partial curve]
O=c1c(O)c(-c2ccc(O)cc2)oc2ccccc12 28.2 µM [inhibitor, partial curve]
COC(=O)Cc1ccc2c3ccccc3n(C)c2c1 28.2 µM [inhibitor, partial curve]
Cc1cccc(CSc2nc3ccncc3n2CC(=O)Nc2ccc(C)c(C)c2)c1 31.6 µM [inhibitor, partial curve]
O=C(O)c1cc(Cl)c2ccccc2c1O 31.6 µM [inhibitor, partial curve]
Cc1ccc(CN2CC(C(=O)Nc3ccc4c(C)cc(=O)oc4c3)CC2=O)cc1 (stereo not given) 28.2 µM [inhibitor, partial curve]
Cc1ccc2nc(SCc3ccc([N+](=O)[O-])cc3)[nH]c2c1 15.8 µM [inhibitor, partial curve]
O=C(N/N=C/c1ccco1)c1cc(Br)ccc1OCc1ccccc1 39.8 µM [inhibitor, single point]
Brc1c(CSc2nc3ccccc3s2)nc2ncccn12 28.2 µM [inhibitor, partial curve]

Potency, active:
COc1ccc2nc(NC(=S)N(C)C)sc2c1 8.91 µM
CC(=O)Nc1ccc(Oc2ccc(-c3noc(C)n3)cc2)cc1 7.94 µM
O=[N+]([O-])c1cc(S(=O)(=O)C(F)(F)F)ccc1Sc1nc2ccccc2s1 25.1 µM
Cc1nn(CC(=O)Nc2ccc(C(=O)N3CCCCC3)cc2)c(=O)c2ccccc12 1.12 µM
CCOC(=O)/C(C)=C1\NC(C)(C)Cc2ccccc21 20 µM
O=C(CSc1nnc(COc2ccccc2F)n1-c1ccccc1)NCc1ccco1 20 µM
Cc1cc(C)cc(N2C(=O)CN(Cc3sccc3C)C2=S)c1 28.2 µM

Activity change, negative = inhibition, inactive:
O=C1C(C2=C(O)c3ccccc3C2=O)=Nc2ccccc21 -18.1%
Cc1ccc(/C=C/C(=O)O)cc1S(=O)(=O)N(CCO)CCO -2.05%
COCCn1c(Cc2ccccc2)nnc1SCC(=O)N1CCCCC1C (stereo not given) -9.73%
O=C(NCCOc1ccc(Cl)cc1)C1CC(=O)N(c2ccc(F)cc2)C1 (stereo not given) -11.8%
CCOCCCNS(=O)(=O)c1ccc2c(c1)CCN2C(=O)CC -1.21%
COc1ccc(S(=O)(=O)N2CCN(C3Cc4ccccc4C3)CC2)cc1 -1.23%
C[N+]12CCCCC1C(COC(=O)c1ccc3c(c1)OCO3)CCC2 (stereo not given) -1.25%
O=C(CSc1c2c(nc3cc(Cl)ccc13)CCCC2)NCc1ccco1 -18.9%
CCc1nc(SCC(=O)NCc2ccco2)c2c3c(sc2n1)CCCC3 -11.6%
